SMILES strings stand for the structures.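 Where inhibition never reached the appropriate level, the endpoint shown equals the highest concentration tested. Otherwise, values were interpolated linearly from a five-concentration, 48-hour dose response in 96-well plates. Here, GI50 denotes the concentration required for 50% inhibition of growth. TGI marks complete inhibition of growth.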 Where only a bound is given, the exact number is not on record here.

For this test, the system named is NCI-H322M lung. Description: NCI-60 cell line screen, 48 h.
As for `Clc1cccc(NC=Nc2ccc(-c3nc4ccccc4s3)cc2)c1`, the GI50 was 16.6 µM and the TGI was 48.1 µM.

Take `COC(=O)C1CC(C=[N+](C)C)=C(SC)N1` (stereo unspecified): the TGI was greater than 100 µM.

Regarding `C[C@]12CC/C(=N\O)C=C1CC[C@@H]1[C@@H]2CC[C@]2(C)C(=N/O)/C(=C/c3cccnc3)C[C@@H]12`, the TGI was found to be 82.7 µM.

In the case of `CC(=O)OCC1OC(n2c(=S)[nH]c(-c3ccccc3)c(C#N)c2=O)C(OC(C)=O)C(OC(C)=O)C1OC(C)=O` (stereo unspecified), the TGI is greater than 100 µM.

Consider `COC(=O)[C@@H](C)C[C@H](Cc1ccccc1)NC(=O)c1nc([C@@H](C[C@H](C(C)C)N(C)C(=O)[C@@H](NC(=O)[C@H]2CCCN2C)C(C)C)OC(C)=O)sc1C`, for which the GI50 is 0.00889 µM and the TGI was greater than 25 µM.

In turn, `O=[N+]([O-])c1ccc(NSc2ccccc2)cc1` yielded a TGI greater than 100 µM.

Regarding `CCOP(=O)(OCC)/C(F)=C/c1ccccc1`, the TGI is greater than 100 µM.

For the molecule `CC(C)=CC1C(C(=O)O)C1(C)C` (stereo unspecified), the TGI is greater than 750 µM.

Consider `c1ccc2c(c1)CCCN1CCc3ccccc3C21` (stereo unspecified), for which the TGI is greater than 100 µM.

For the origin of these results see PubChem BioAssay (NCI).
